Test results taken from the supplement of paper PMC3334620.
The full ranking holds about 33,000 sequences; the median of “E-score (-0.5 to 0.5)” is about -0.041, and the highest 2% start at about 0.37. The list shows a part of the results.

Target: T1, Ecm22 (UniProt Q05958)
T1 sequence: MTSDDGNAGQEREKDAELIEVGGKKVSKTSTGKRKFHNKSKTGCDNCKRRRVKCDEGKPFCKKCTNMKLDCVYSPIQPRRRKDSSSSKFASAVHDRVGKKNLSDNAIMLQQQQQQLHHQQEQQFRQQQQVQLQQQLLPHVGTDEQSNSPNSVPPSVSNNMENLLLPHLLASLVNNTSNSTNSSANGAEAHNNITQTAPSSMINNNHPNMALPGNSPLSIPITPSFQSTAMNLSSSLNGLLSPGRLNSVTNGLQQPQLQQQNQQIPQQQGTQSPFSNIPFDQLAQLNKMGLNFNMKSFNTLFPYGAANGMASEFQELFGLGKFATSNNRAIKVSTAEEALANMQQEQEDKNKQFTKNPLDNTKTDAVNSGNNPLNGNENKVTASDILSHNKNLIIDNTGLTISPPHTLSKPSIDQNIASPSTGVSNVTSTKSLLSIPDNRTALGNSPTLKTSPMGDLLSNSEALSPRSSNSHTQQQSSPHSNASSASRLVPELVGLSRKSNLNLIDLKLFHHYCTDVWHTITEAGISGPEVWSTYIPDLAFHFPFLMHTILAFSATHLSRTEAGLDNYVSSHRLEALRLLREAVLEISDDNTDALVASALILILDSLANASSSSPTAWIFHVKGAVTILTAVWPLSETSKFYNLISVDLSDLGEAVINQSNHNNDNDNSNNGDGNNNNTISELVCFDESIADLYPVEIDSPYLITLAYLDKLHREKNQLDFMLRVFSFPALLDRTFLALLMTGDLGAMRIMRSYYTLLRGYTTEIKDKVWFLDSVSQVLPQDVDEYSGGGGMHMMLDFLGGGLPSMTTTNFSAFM
Assay: PBM E-score (8-mer binding enrichment) (E-score (-0.5 to 0.5)); higher = stronger / more preferred TF binding; most listed sequences are background and not binding sites
Details: protein concentration: 200 nM; construct: GST-full length
Outline: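 Detection of bound protein used fluorescent anti-GST, with scans normalised by masliner. The proteins were GST-tagged yeast transcription factors applied at about 100-200 nM to universal all-10-mer Agilent arrays made double-stranded by primer extension. Each ungapped eight-base word, pooled with its reverse complement, was scored with an E-score from the Universal PBM Analysis Suite.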

Row | Sequence | PBM E-score
1 | CATTAACC | -0.0348
2 | ATCAGTCG | -0.00885
3 | ACTGTTCT | -0.065
4 | ATTCACTC | -0.0367
5 | AAAACCAA | -0.0224
6 | CATTCCCG | 0.0847
7 | CAGTACAA | -0.0343
8 | AAAAGCTT | -0.112
9 | ACATGTCC | -0.0399
10 | AATCTCAC | 0.0359
11 | GTACGGGA | 0.419
12 | GGCAGTAC | -0.0784
13 | CCATTGGG | -0.127
14 | ATTTCAAG | -0.244
15 | GCCGGTAC | 0.129
16 | AAGAGAGA | -0.165
17 | GCGCATCC | -0.0943
18 | GTATACAA | 0.161
19 | AATTCCAG | -0.122
20 | AATTTAAG | 0.037
21 | CATCCTCA | -0.113
22 | CAGTGATA | -0.0517
23 | ATAGCTAA | -0.209
24 | ATGGCTAA | -0.0821
25 | AAACGCGG | 0.164

Row | Sequence | PBM E-score
26 | GGATGTAC | 0.168
27 | AAGATTCT | -0.263
28 | GTTCACGA | 0.205
29 | CTCTACAG | -0.0754
30 | CAGTTCTA | -0.0486
31 | AGCGACCA | 0.144
32 | ATTAAGCC | -0.0618
33 | CTCTGAAA | -0.223
34 | ATCTCCCG | -0.0893
35 | CGTTAGTC | 0.0681
36 | ACTAGGAA | -0.246
37 | ATCGAATC | -0.0353
38 | GCAAATGC | -0.24
39 | CCGCCGAC | -0.0824
40 | AATTAGGT | -0.09
41 | CGGACGTA | 0.205
42 | AATTATGC | 0.0879
43 | GCCTCAGC | -0.233
44 | CATCTATA | 0.0724
45 | CCGCCCGG | 0.00167
46 | GAGCAGTA | -0.00126
47 | AATGATCA | -0.0568
48 | GCATTCGC | 0.164
49 | CTCGTGTC | 0.314
50 | CTACTTTA | -0.0575

Row | Sequence | PBM E-score
51 | TGAGTCAA | -0.067
52 | AGCCAGCA | -0.308
53 | AACGGTAC | 0.328
54 | CTCTAAGA | -0.202
55 | GACTCAAA | 0.0153
56 | AACGCTCA | 0.0883
57 | CCTGCCCC | -0.142
58 | CCACTTAG | -0.128
59 | CTATTATC | 0.125
60 | CAAACACC | -0.00172
61 | ATTCCGGC | -0.227
62 | CAATCTGC | -0.146
63 | GATGAGTA | -0.0391
64 | CAGCGTCC | -0.0894
65 | CAAAACCA | -0.0331
66 | GAATCTTA | 0.0749
67 | ATAAGTGC | -0.13
68 | AAAACCTG | 0.00105
69 | GATTCACA | -0.0511
70 | GTCTCAAA | -0.0696
71 | GTGGCTGA | -0.228
72 | GTAGGGAA | 0.0223
73 | GTCTTACA | -0.135
74 | ACAGCTTC | 0.0681
75 | CGGGATGA | 0.00392

Row | Sequence | PBM E-score
76 | CAGTTTAG | -0.0933
77 | CAAACCTC | -0.234
78 | CCCTCGTC | 0.119
79 | CGTCCTGA | -0.174
80 | CTCAAAAC | -0.0415
81 | CCATCACG | 0.00086
82 | ACACGACC | 0.186
83 | GTAGTGCA | -0.136
84 | AGACTTGG | -0.225
85 | CTGCTCAC | -0.0919
86 | CTGTCAAC | 0.0474
87 | GAACTGTA | 0.0211
88 | GGCATCAA | -0.237
89 | CAAATAGG | -0.0548
90 | ACCTGCGA | 0.07
91 | CCGGCCTC | -0.0596
92 | CATCTCGA | -0.0798
93 | GCCGGTAA | -0.0142
94 | ATAGTTCC | -0.0217
95 | AACTAACT | -0.0882
96 | CAAATTCG | 0.136
97 | GCAGAACC | -0.0493
98 | TCAAAAGA | -0.147
99 | ACCAACGC | -0.0181
100 | AGGATAAA | -0.125

Row | Sequence | PBM E-score
101 | AATTCGCG | 0.201
102 | AGGAAACA | 0.0582
103 | ATTGTTAG | -0.11
104 | GTATTCTA | 0.0983
105 | CTGATGGC | -0.152
106 | AATTTGTA | 0.138
107 | TAGCTCGA | -0.0421
108 | CCTTCTGC | -0.243
109 | GACGACCA | 0.097
110 | AATCAGCA | -0.116
111 | ACAACATA | 0.0339
112 | ATACGGAG | 0.385
113 | ATTTCGAG | -0.016
114 | CGTAGTAG | 0.109
115 | AATAGCAA | 0.0594
116 | CGTAGCGC | 0.273
117 | GAATCGCA | -0.0229
118 | GCTTCTTA | -0.0116
119 | ATGCGTTA | 0.167
120 | AAAAGCAA | -0.0638
121 | ATTGGTAG | -0.145
122 | ATCCCGAC | 0.0577
123 | GGTAAGTA | 0.00832
124 | GCCGTAGA | 0.213
125 | ACCGATAC | 0.342

Row | Sequence | PBM E-score
126 | ACAAGACA | 0.0576
127 | AGGGGCAG | -0.261
128 | ATGCCTAC | -0.201
129 | GTTTGTCA | 0.04
130 | AGAATTAG | -0.0877
131 | CCTGACTA | -0.143
132 | TGAAGCAA | -0.206
133 | ATAATCTC | 0.0283
134 | GGTCTTTA | -0.0988
135 | ATGCGAAC | 0.278
136 | ATCGTTAG | 0.201
137 | AATCGAGA | 0.101
138 | CCGCGCTC | 0.0324
139 | AACCTGCT | 0.0663
140 | CATTTACG | 0.292
141 | GAACTCGA | -0.128
142 | AGAAAAGA | -0.0437
143 | CACCAATG | -0.115
144 | AGAGTCGG | 0.0823
145 | TCTACGCA | 0.041
146 | AAAAATCT | 0.15
147 | TCTAAGCA | -0.321
148 | AATAGTGG | -0.102
149 | GGATGTGA | -0.253
150 | GCAACCGA | 0.141

Row | Sequence | PBM E-score
151 | AACGAGGA | 0.449
152 | GAACCCGC | 0.0274
153 | CGGTCGGC | 0.229
154 | AGAGTTAA | -0.111
155 | GGAATTCC | -0.244
156 | AACTTGCC | -0.085
157 | AACCCGTG | -0.11
158 | CGAAGTTC | 0.11
159 | AAGTCACG | -0.166
160 | ATAATCCC | -0.0249
161 | ATAACCAA | -0.131
162 | CAAAATCC | 0.0583
163 | AGCCACAA | -0.114
164 | GAAGACAC | 0.197
165 | CCGATGGA | 0.0874
166 | CGTTTAAA | 0.453
167 | AGTTTAGC | -0.19
168 | CAGTTTAC | 0.069
169 | AATGCACG | 0.0842
170 | GACCTCGC | 0.243
171 | ACGTACAT | 0.233
172 | ATTGGTGG | -0.181
